# Test results: the supplement of paper PMC8728848
# Some of the results follow.
# B1: Cohesin-hLangerin (Homo sapiens) (protein)
# chain: LDDLDAVRIKVDTVNAKPGDTVRIPVRFSGIPSKGIANCDFVYSYDPNVLEIIEIEPGDIIVDPNPDKSFDTAVYPDRKIIVFLFAEDSGTGAYAITKDGVFATIVAKVKEGAPNGLSVIKFVEVGGFANNDLVEQKTQFFDGGANVGDTTEPATPTTPVTTPTTTDDLDAASYPRFMGTISDVKTNVQLLKGRVDNISTLDSEIKKNSDGMEAAGVQIQMVNESLGYVRSQFLKLKTSVEKANAQIQILTRSWEEVSTLNAQIPELKSDLEKASALNTKIRALQGSLENMSKLLKRQNDILQVVSQGWKYFKGNFYYFSLIPKTWYSAEQFCVSRNSHLTSVTSESEQEFLYKTAGGLIYWIGLTKAGMEGDWSWVDDTPFNKVQSARFWIPGEPNNAGNNEHCGNIKAPSLQAWNDAPCDKTFLFICKRPYVPSEPHHHHHH
# What was measured:
# Experiment in all cases: glycan array binding signal (z-score within array); higher = stronger binding
# Settings in all cases: glycan notation: IUPAC condensed, linker removed
# [1] = biological target: Neu5Ac(a2-6)Gal(b1-4)GlcNAc(b1-2)Man(a1-3)[Neu5Ac(a2-3)Gal(b1-4)GlcNAc(b1-2)Man(a1-6)]Man(b1-4)GlcNAc(b1-4)GlcNAc
# Method in brief: (§1)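 Glycan array data came from 3228 arrays in the Consortium for Functional Glycomics database, and only arrays with an available protein sequence were kept. Glycan names were put into IUPAC-condensed notation, and columns mapping to the same glycan were averaged. The binding signal is a within-array Z-score, averaged across arrays of one protein sequence run at different concentrations or buffers and across linkers. A negative Z-score can be read as non-binding.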
# [2] = biological target: Neu5Ac(a2-6)Gal(b1-4)GlcNAc(b1-2)Man(a1-3)[Neu5Ac(a2-6)Gal(b1-4)GlcNAc(b1-2)Man(a1-6)]Man(b1-4)GlcNAc(b1-4)GlcNAc
# Method in brief: as §1
# [3] = biological target: Neu5Ac(a2-6)Gal(b1-4)GlcNAc(b1-2)Man(a1-3)[Neu5Ac(a2-6)Gal(b1-4)GlcNAc(b1-2)Man(a1-6)]Man(b1-4)GlcNAc(b1-4)[Fuc(a1-6)]GlcNAc
# Method in brief: as §1
# [4] = biological target: Neu5Ac(a2-6)Gal(b1-4)GlcNAc(b1-2)Man(a1-6)Man(b1-4)GlcNAc(b1-4)GlcNAc
# Method in brief: as §1
# [5] = biological target: Neu5Ac(a2-6)Gal(b1-4)GlcNAc(b1-2)Man(a1-6)[Gal(b1-4)GlcNAc(b1-2)Man(a1-3)]Man(b1-4)GlcNAc(b1-4)GlcNAc
# Method in brief: as §1
# [6] = biological target: Neu5Ac(a2-6)Gal(b1-4)GlcNAc(b1-2)Man(a1-6)[GlcNAc(b1-2)Man(a1-3)]Man(b1-4)GlcNAc(b1-4)GlcNAc
# Method in brief: as §1
# [7] = biological target: Neu5Ac(a2-6)Gal(b1-4)GlcNAc(b1-2)Man(a1-6)[Man(a1-3)]Man(b1-4)GlcNAc(b1-4)GlcNAc
# Method in brief: as §1
# [8] = biological target: Neu5Ac(a2-6)Gal(b1-4)GlcNAc(b1-2)[Neu5Ac(a2-6)Gal(b1-4)GlcNAc(b1-4)]Man(a1-3)[GlcNAc(b1-4)][Neu5Ac(a2-6)Gal(b1-4)GlcNAc(b1-2)[Neu5Ac(a2-6)Gal(b1-4)GlcNAc(b1-6)]Man(a1-6)]Man(b1-4)GlcNAc(b1-4)GlcNAc
# Method in brief: as §1
# [9] = biological target: Neu5Ac(a2-6)Gal(b1-4)GlcNAc(b1-2)[Neu5Ac(a2-6)Gal(b1-4)GlcNAc(b1-4)]Man(a1-3)[GlcNAc(b1-4)][Neu5Ac(a2-6)Gal(b1-4)GlcNAc(b1-4)Man(a1-6)]Man(b1-4)GlcNAc(b1-4)GlcNAc
# Method in brief: as §1
# [10] = biological target: Neu5Ac(a2-6)Gal(b1-4)GlcNAc(b1-2)[Neu5Ac(a2-6)Gal(b1-4)GlcNAc(b1-6)]Man(a1-6)[Neu5Ac(a2-6)Gal(b1-4)GlcNAc(b1-2)Man(a1-3)][GlcNAc(b1-4)]Man(b1-4)GlcNAc(b1-4)GlcNAc
# Method in brief: as §1
# [11] = biological target: Neu5Ac(a2-6)Gal(b1-4)GlcNAc(b1-3)Gal(b1-3)GlcNAc
# Method in brief: as §1
# [12] = biological target: Neu5Ac(a2-6)Gal(b1-4)GlcNAc(b1-3)Gal(b1-4)GlcNAc
# Method in brief: as §1
# [13] = biological target: Neu5Ac(a2-6)Gal(b1-4)GlcNAc(b1-3)Gal(b1-4)GlcNAc(b1-2)Man(a1-3)[Neu5Ac(a2-6)Gal(b1-4)GlcNAc(b1-3)Gal(b1-4)GlcNAc(b1-2)Man(a1-6)]GalNAc
# Method in brief: as §1
# [14] = biological target: Neu5Ac(a2-6)Gal(b1-4)GlcNAc(b1-3)Gal(b1-4)GlcNAc(b1-3)Gal(b1-4)GlcNAc
# Method in brief: as §1
# [15] = biological target: Neu5Ac(a2-6)Gal(b1-4)GlcNAc(b1-3)Gal(b1-4)GlcNAc(b1-3)Gal(b1-4)GlcNAc(b1-2)Man(a1-3)[Neu5Ac(a2-6)Gal(b1-4)GlcNAc(b1-3)Gal(b1-4)GlcNAc(b1-3)Gal(b1-4)GlcNAc(b1-2)Man(a1-6)]GalNAc
# Method in brief: as §1
# [16] = biological target: Neu5Ac(a2-6)Gal(b1-4)GlcNAc(b1-3)Gal(b1-4)GlcNAc(b1-3)GalNAc
# Method in brief: as §1
# [17] = biological target: Neu5Ac(a2-6)Gal(b1-4)GlcNAc(b1-3)Gal(b1-4)GlcNAc(b1-3)[Neu5Ac(a2-6)Gal(b1-4)GlcNAc(b1-3)Gal(b1-4)GlcNAc(b1-6)]GalNAc
# Method in brief: as §1
# [18] = biological target: Neu5Ac(a2-6)Gal(b1-4)GlcNAc(b1-3)Gal(b1-4)GlcNAc(b1-6)[Gal(b1-3)]GalNAc
# Method in brief: as §1
# [19] = biological target: Neu5Ac(a2-6)Gal(b1-4)GlcNAc(b1-3)Gal(b1-4)[Fuc(a1-3)]GlcNAc(b1-3)Gal(b1-4)[Fuc(a1-3)]GlcNAc
# Method in brief: as §1
# [20] = biological target: Neu5Ac(a2-6)Gal(b1-4)GlcNAc(b1-3)GalNAc
# Method in brief: as §1
# [21] = biological target: Neu5Ac(a2-6)Gal(b1-4)GlcNAc(b1-3)[Neu5Ac(a2-6)Gal(b1-4)GlcNAc(b1-6)]GalNAc
# Method in brief: as §1
# [22] = biological target: Neu5Ac(a2-6)Gal(b1-4)GlcNAc(b1-6)GalNAc
# Method in brief: as §1
# [23] = biological target: Neu5Ac(a2-6)Gal(b1-4)GlcNAc(b1-6)[Gal(b1-3)GlcNAc(b1-3)]Gal(b1-4)Glc
# Method in brief: as §1
# [24] = biological target: Neu5Ac(a2-6)Gal(b1-4)GlcNAc(b1-6)[Gal(b1-3)]GalNAc
# Method in brief: as §1
# [25] = biological target: Neu5Ac(a2-6)Gal(b1-4)GlcNAc6S
# Method in brief: as §1
# [26] = biological target: Neu5Ac(a2-6)GalNAc
# Method in brief: as §1
# [27] = biological target: Neu5Ac(a2-6)GalNAc(b1-4)GlcNAc
# Method in brief: as §1
# [28] = biological target: Neu5Ac(a2-6)GalNAc(b1-4)GlcNAc6S
# Method in brief: as §1
# [29] = biological target: Neu5Ac(a2-6)GlcNAc(b1-4)GlcNAc
# Method in brief: as §1
# [30] = biological target: Neu5Ac(a2-6)GlcNAc(b1-4)GlcNAc(b1-4)GlcNAc
# Method in brief: as §1
binder,measurement,setting,value
B1,glycan array binding signal (z-score),[1],-0.378
same,glycan array binding signal (z-score),[2],-0.398
same,glycan array binding signal (z-score),[3],-0.303
same,glycan array binding signal (z-score),[4],-0.442
same,glycan array binding signal (z-score),[5],-0.45
same,glycan array binding signal (z-score),[6],-0.405
same,glycan array binding signal (z-score),[7],-0.442
same,glycan array binding signal (z-score),[8],-0.323
same,glycan array binding signal (z-score),[9],-0.404
same,glycan array binding signal (z-score),[10],-0.442
same,glycan array binding signal (z-score),[11],-0.252
same,glycan array binding signal (z-score),[12],-0.441
same,glycan array binding signal (z-score),[13],-0.232
same,glycan array binding signal (z-score),[14],-0.358
same,glycan array binding signal (z-score),[15],-0.159
same,glycan array binding signal (z-score),[16],-0.422
same,glycan array binding signal (z-score),[17],-0.309
same,glycan array binding signal (z-score),[18],-0.407
same,glycan array binding signal (z-score),[19],-0.061
same,glycan array binding signal (z-score),[20],-0.381
same,glycan array binding signal (z-score),[21],-0.427
same,glycan array binding signal (z-score),[22],-0.363
same,glycan array binding signal (z-score),[23],-0.361
same,glycan array binding signal (z-score),[24],-0.403
same,glycan array binding signal (z-score),[25],-0.387
same,glycan array binding signal (z-score),[26],-0.371
same,glycan array binding signal (z-score),[27],-0.418
same,glycan array binding signal (z-score),[28],-0.405
same,glycan array binding signal (z-score),[29],-0.441
same,glycan array binding signal (z-score),[30],-0.447
